From patent US10604555B2, “GIP derivatives and uses thereof” (priority 2018, dated 2020)
Part of at least one peptide drawing is inferred or uncertain, most often the ends. At least one compound was matched to its structure with a doubt left. *1 amine or outer side, *2 acyl side, *3 side chain or, on linkers, in order; H or OH if unused. Where a SMILES comes first, the peptide text is derived from it. Side-chain parts run from the residue outwards. [ ]: non-standard residue; d: D form. The star is where a group is joined. C18 diacid = O=C(O)CCCCCCCCCCCCCCCCC(=O)*; γGlu = O=C(O)[C@H](CCC(=O)[*:2])N[*:1]; Nle = CCCC[C@H](N)C(=O)O; Aib = CC(C)(N)C(=O)O

Assays:
Format in all cases: physicochemical
[1] = ThT fibrillation assay (physical stability); conditions: 250 μM, pH 7.4, 37° C., 45 hours of incubation
Procedure: The Thioflavin T assay was performed as outlined in Schlein (2017), AAPS J, 19(2), 397-408.
This has traditionally been measured by visual inspection of the sample. However, that kind of measurement is very cumbersome and depending on the observer. Therefore, the application of a small molecule indicator probe is much more advantageous. Thioflavin T (ThT) is such a probe and has a distinct fluorescence signature when binding to fibrils [Naiki et al. (1989) Anal. Biochem. 177, 244-249; LeVine (1999) Methods. Enzymol. 309, 274-284].
The time course for fibril formation can be described by a sigmoidal curve with the following expression [Nielsen et al. (2001) Biochemistry 40, 6036-6046]:
Here, F is the ThT fluorescence at the time t. The constant t0 is the time needed to reach 50% of maximum fluorescence. The two important parameters describing fibril formation are the lag-time calculated by t0−2τ and the apparent rate constant kapp 1/τ.
Few of those intermediates nucleate to form a template onto which further intermediates may assembly and the fibrillation proceeds. The lag-time corresponds to the interval in which the critical mass of nucleus is built up and the apparent rate constant is the rate with which the fibril itself is formed.
Samples are prepared freshly before each assay. The drug substance was solved with 250 μM of the GIP derivative in 8 mM phosphate, 14 mg/mL propylene glycol, 58 mM phenol, pH 7.4. The pH of the sample was adjusted to the desired value using appropriate amounts of concentrated NaOH and HCl. Thioflavin T was added to the samples from a stock solution in H2O to a final concentration of 1 μM.
Sample aliquots of 200 μl were placed in each well of a 96 well microtiter plate (Packard OptiPlate™-96, white polystyrene). Four replica of each sample (corresponding to one test condition) was placed in one column of wells. The plate was sealed with Scotch Pad (Qiagen).
Incubation, shaking and measurement of the ThT fluorescence emission were done in a Fluoroskan Ascent FL fluorescence platereader (Thermo Labsystems). […] Fluorescence measurement was done using excitation through a 444 nm filter and measurement of emission through a 485 nm filter.
Each run was initiated by incubating the plate at the assay temperature for 10 min. The plate was measured every 20 minutes for a desired period of time. Between each measurement, the plate was shaken and heated as described.
After completion of the ThT assay the replica of each sample was pooled and centrifuged at 20000 rpm for 30 minutes at 18° C. The supernatant was filtered through a 0.22 μm filter and an aliquot was transferred to a HPLC vial. The concentration of the filtered sample relative to the initial sample (in percentage) was reported as the recovery.
The measurement points were saved in Microsoft Excel format for further processing and curve drawing and fitting was performed using GraphPad Prism. […] The data points were a mean of the four replica and shown with standard deviation error bars. Only data obtained in the same experiment (i.e. samples on the same plate) were presented in the same graph ensuring a relative measure of fibrillation between experiments.
The data set may be fitted to Eq. (1).

[2] = Dynamic Light Scattering Stability Index (DLS-SI); conditions: 250 μM, pH 7.4, 4 weeks at 25° C.
[3] = Chemical stability: HMWP formation by SEC-MS; conditions: 37° C., 4 weeks, 250 μM, pH 7.4
Procedure: The aim of this study is to determine the chemical stability of GIP derivative compositions. As a measure of stability of the GIP derivative composition, the formation of high molecular weight peptide formation (% HMWP) as a function of time was analysed by size-exclusion chromatography (SEC-MS). Further, the purity loss of the GIP derivative compositions was measured by LCMS. Samples for chemical stability assays were freshly prepared before each assay. […] The pH of the sample was adjusted to the desired value using appropriate amounts of concentrated NaOH and HCl. […] Formation of covalent oligomers (HMWPs) was analysed and identified by a SEC-MS method. […] The LC system was coupled to both a TUV detector operated at 215 nm, 10 Hz and a high resolution QToF mass spectrometer from Waters (Synapt G2S) operated in positive ion mode and m/z range of 100 to 4000 with normal resolution setting. Lock mass correction against Leu-Enkephalin was done every 31 sec. Spectra were processed in MassLynx version 4.1 and MaxEnt deconvoluted.

[4] = Chemical stability: purity loss by LCMS; conditions: 37° C., 4 weeks, 250 μM, pH 7.4
Procedure: The aim of this study is to determine the chemical stability of GIP derivative compositions. As a measure of stability of the GIP derivative composition, the formation of high molecular weight peptide formation (% HMWP) as a function of time was analysed by size-exclusion chromatography (SEC-MS). Further, the purity loss of the GIP derivative compositions was measured by LCMS. Samples for chemical stability assays were freshly prepared before each assay. […] The pH of the sample was adjusted to the desired value using appropriate amounts of concentrated NaOH and HCl. […] The column oven was kept at 55° C. […] The solvents were pumped from a binary solvent manager system and mixed on the high pressure side in a mixer with a volume of 50 μl. The gradient and flow can be seen in table 4: [table] A Flow-through-needle auto sampler at 8° C. was used to inject 1 μl of each sample. The effluent passed through a tunable UV detector (TUV) tuned to 215 nm. The outlet from the UV detector passed to the electrospray source of the mass spectrometer. The capillary was held at 3 kV and dry nitrogen gas was purged at a flow of 750 I/h and a temperature of 250° C. The source block was kept at 120° C. and the large bore cone was flushed with nitrogen at 50 I/h with standard electrode potentials on the rest of the instrument. The MS was operated in high resolution mode with a nominal resolution of 35000. The ToF analyser was operated in ADC mode with an m/z window from 100-2000.

| Structure (SMILES) | ThT Assay Lag time [1] | DLS-SI Dimensionless [2] | DLS-SI precipitates [2] | HMWP formation (%/month) [3] | Purity loss (%/month) [4] |
| --- | --- | --- | --- | --- | --- |
| CCCC[C@H](NC(=O)[C@H](C)NC(=O)[C@@H](NC(=O)[C@H](CO)NC(=O)[C@H](Cc1ccc(O)cc1)NC(=O)[C@H](CC(=O)O)NC(=O)[C@H](CO)NC(=O)[C@@H](NC(=O)[C@H](Cc1ccccc1)NC(=O)[C@@H](NC(=O)CNC(=O)[C@H](CCC(=O)O)NC(=O)C(C)(C)NC(=O)[C@@H](N)Cc1ccc(O)cc1)[C@@H](C)O)[C@@H](C)CC)[C@@H](C)CC)C(=O)N[C@@H](CC(=O)O)C(=O)N[C@@H](CCCCN)C(=O)N[C@H](C(=O)N[C@@H](CCCNC(=N)N)C(=O)N[C@@H](CCC(N)=O)C(=O)N[C@@H](CCC(N)=O)C(=O)N[C@@H](CC(=O)O)C(=O)N[C@@H](Cc1ccccc1)C(=O)N[C@H](C(=O)N[C@@H](CCCCNC(=O)COCCOCCNC(=O)COCCOCCNC(=O)CC[C@H](NC(=O)C1CCC(CNC(=O)CCCCCCCCCCCCCCCCCCC(=O)O)CC1)C(=O)O)C(=O)N[C@@H](Cc1c[nH]c2ccccc12)C(=O)N[C@@H](CC(C)C)C(=O)N[C@@H](CC(C)C)C(=O)N[C@@H](C)C(=O)N[C@@H](CCC(N)=O)C(=O)N[C@@H](CCCCN)C(=O)NCC(=O)O)C(C)C)[C@@H](C)CC (stereo partly drawn) [Compound 3, N{Epsilon-24}-[2-[2-[2-[[2-[2-[2-[[(4S)-4-carboxy-4-[[4-[(19-carboxynonadecanoylamino)methyl]cyclohexanecarbonyl]amino]butanoyl]amino]ethoxy]ethoxy]acetyl]amino]ethoxy]ethoxy]acetyl]-[Aib2, Nle14,Arg18, Lys24]-hGIP(1-31)] | >45 h | 0 | No | 0.90 %/month | 2.80 %/month |
| CCCC[C@H](NC(=O)[C@H](C)NC(=O)[C@@H](NC(=O)[C@H](CO)NC(=O)[C@H](Cc1ccc(O)cc1)NC(=O)[C@H](CC(=O)O)NC(=O)[C@H](CO)NC(=O)[C@@H](NC(=O)[C@H](Cc1ccccc1)NC(=O)[C@@H](NC(=O)CNC(=O)[C@H](CCC(=O)O)NC(=O)C(C)(C)NC(=O)[C@@H](Cc1ccc(O)cc1)NC(C)=O)[C@@H](C)O)[C@@H](C)CC)[C@@H](C)CC)C(=O)N[C@@H](CC(=O)O)C(=O)N[C@@H](CCCCN)C(=O)N[C@H](C(=O)N[C@@H](CCCNC(=N)N)C(=O)N[C@@H](CCC(N)=O)C(=O)N[C@@H](CCC(N)=O)C(=O)N[C@@H](CC(=O)O)C(=O)N[C@@H](Cc1ccccc1)C(=O)N[C@H](C(=O)N[C@@H](CCCCNC(=O)CC[C@H](NC(=O)CC[C@H](NC(=O)CC[C@H](NC(=O)CCCCCCCCCCCCCCCCC(=O)O)C(=O)O)C(=O)O)C(=O)O)C(=O)N[C@@H](Cc1c[nH]c2ccccc12)C(=O)N[C@@H](CC(C)C)C(=O)N[C@@H](CC(C)C)C(=O)N[C@@H](C)C(=O)N[C@@H](CCC(N)=O)C(=O)N[C@@H](CCCCN)C(=O)N1CCC[C@H]1C(N)=O)C(C)C)[C@@H](C)CC [Compound 46, N{1}-acetyl,N{Epsilon-24}-[(4S)-4-carboxy-4-[[(4S)-4-carboxy-4-[[(4S)-4-carboxy-4-(17-carboxyheptadecanoylamino)butanoyl]amino]butanoyl]amino]butanoyl]-[D-Tyr1,Aib2,Nle14,Arg18,Lys24,Pro31]-hGIP(1-31) amide] | >45 h | 1.5 | No | −0.09 %/month | 2.96 %/month |
| CCCC[C@H](NC(=O)[C@H](C)NC(=O)[C@@H](NC(=O)[C@H](CO)NC(=O)[C@H](Cc1ccc(O)cc1)NC(=O)[C@H](CC(=O)O)NC(=O)[C@H](CO)NC(=O)[C@@H](NC(=O)[C@H](Cc1ccccc1)NC(=O)[C@@H](NC(=O)CNC(=O)[C@H](CCC(=O)O)NC(=O)C(C)(C)NC(=O)[C@@H](N)Cc1ccc(O)cc1)[C@@H](C)O)[C@@H](C)CC)[C@@H](C)CC)C(=O)N[C@@H](CC(=O)O)C(=O)N[C@@H](CCCCN)C(=O)N[C@H](C(=O)N[C@@H](Cc1c[nH]cn1)C(=O)N[C@@H](CCC(N)=O)C(=O)N[C@@H](CCC(N)=O)C(=O)N[C@@H](CC(=O)O)C(=O)N[C@@H](Cc1ccccc1)C(=O)N[C@H](C(=O)N[C@@H](CCCCNC(=O)CC[C@H](NC(=O)CC[C@H](NC(=O)CC[C@H](NC(=O)CCCCCCCCCCCCCCCCC(=O)O)C(=O)O)C(=O)O)C(=O)O)C(=O)N[C@@H](Cc1c[nH]c2ccccc12)C(=O)N[C@@H](CC(C)C)C(=O)N[C@@H](CC(C)C)C(=O)N[C@@H](C)C(=O)N[C@@H](CCC(N)=O)C(=O)N[C@@H](CCCCN)C(=O)NCC(=O)O)C(C)C)[C@@H](C)CC [Compound 2, N{Epsilon-24}-[(4S)-4-carboxy-4-[[(4S)-4-carboxy-4-[[(4S)-4-carboxy-4-(17-carboxyheptadecanoylamino)butanoyl]amino]butanoyl]amino]butanoyl]-[Aib2,Nle14,Lys24]-hGIP(1-31)] (H-Y[Aib]EGTFISDYSIA[Nle]DKIHQQDFVK([γGlu-γGlu-γGlu-C18 diacid])WLLAQKG-OH) | >45 h | 0 | No | 0.25 %/month | 3.47 %/month |
